Measurements as given in publication PMC4336329 (PLoS ONE, 2015).
Among all 310,000 compounds or so, about 2,200 (0.71%) showed an effect of 50% or more. The effect is printed as a negative number. The list shows a part of the results.

molecular target: human ether-à-go-go-related gene (hERG) potassium channel (human, UniProt Q12809); assay: primary screen, population patch clamp on CHO cells stably expressing hERG
Sequence (Q12809 whole entry, looked up): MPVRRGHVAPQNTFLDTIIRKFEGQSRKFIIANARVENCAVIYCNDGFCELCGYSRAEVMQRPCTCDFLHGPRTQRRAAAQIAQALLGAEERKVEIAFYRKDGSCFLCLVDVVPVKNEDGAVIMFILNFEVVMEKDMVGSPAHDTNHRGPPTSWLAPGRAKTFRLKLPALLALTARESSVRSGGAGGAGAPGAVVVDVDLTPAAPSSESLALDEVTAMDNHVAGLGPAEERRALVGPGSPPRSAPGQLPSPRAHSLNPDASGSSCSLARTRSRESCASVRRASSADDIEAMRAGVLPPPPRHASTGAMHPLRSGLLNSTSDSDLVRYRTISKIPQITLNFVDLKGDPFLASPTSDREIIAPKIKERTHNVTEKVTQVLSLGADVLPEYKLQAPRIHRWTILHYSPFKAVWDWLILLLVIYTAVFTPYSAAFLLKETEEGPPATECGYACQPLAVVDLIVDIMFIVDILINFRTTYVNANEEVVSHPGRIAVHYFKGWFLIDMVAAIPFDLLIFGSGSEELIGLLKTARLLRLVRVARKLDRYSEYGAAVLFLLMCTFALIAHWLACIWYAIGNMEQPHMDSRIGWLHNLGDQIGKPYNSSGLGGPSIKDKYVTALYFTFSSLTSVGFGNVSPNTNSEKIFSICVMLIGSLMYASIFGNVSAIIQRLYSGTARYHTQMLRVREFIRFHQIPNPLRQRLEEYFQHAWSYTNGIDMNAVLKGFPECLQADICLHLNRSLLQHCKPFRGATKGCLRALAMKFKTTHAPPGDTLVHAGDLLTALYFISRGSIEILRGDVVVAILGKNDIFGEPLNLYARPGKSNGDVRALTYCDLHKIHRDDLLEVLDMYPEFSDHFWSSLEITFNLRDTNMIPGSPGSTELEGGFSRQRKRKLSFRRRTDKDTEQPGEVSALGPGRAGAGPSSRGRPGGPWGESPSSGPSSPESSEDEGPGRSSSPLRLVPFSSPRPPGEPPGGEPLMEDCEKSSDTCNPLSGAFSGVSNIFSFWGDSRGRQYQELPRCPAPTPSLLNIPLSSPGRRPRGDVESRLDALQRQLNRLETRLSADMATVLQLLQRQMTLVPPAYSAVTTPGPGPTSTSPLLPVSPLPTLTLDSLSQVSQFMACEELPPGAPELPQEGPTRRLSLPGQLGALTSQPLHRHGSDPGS

Row | SMILES | hERG current change (%, negative = inhibition) at 1uM [%]
1 | COc1ccc(CCNC(=O)C2CC(c3cccc(F)c3)=NO2)cc1 (centres unmarked) | 14
2 | CCOC(=O)CC(C)(C)/C(C)=N/Nc1ccc([N+](=O)[O-])cc1[N+](=O)[O-] | -17.2
3 | CC(CCc1ccccc1)NC(=O)c1ccc(NC(=O)c2cccc(Br)c2)cc1 (centres unmarked) | 9.18
4 | Cc1noc(C)c1COC(=O)c1ccccc1Sc1ccccc1C#N | -4.24
5 | c1ccc(-c2noc(C34CC5CC(CC(C5)C3)C4)n2)nc1 | 6.57
6 | COc1ccc(CC(=O)c2ccc(OC3OC(CO)C(O)C(O)C3O)cc2O)cc1 (centres unmarked) | 15.3
7 | FC(F)(F)c1cc(C(F)(F)F)c2ccc(N3CCN(c4ncccn4)CC3)nc2n1 | -1.74
8 | CC(=O)Nc1cccc(C(=O)OCc2ccc(C(=O)Oc3ccc(Cl)cc3)cc2)c1 | 6.8
9 | Cc1ccc(NC(=O)COC(=O)Cc2cccs2)c(Br)c1 | 14.3
10 | Cc1cccc(OCC(=O)Nc2ccncc2)c1C | 15.9
11 | CCOc1cc(CNC)ccc1OCC(=O)NC(C)(C)C.Cl | 16.9
12 | CCOC(=O)N=S(=O)(Oc1ccc([N+](=O)[O-])cc1)c1ccccc1 (centres unmarked) | -6.14
13 | CCC(=O)c1c[nH]c(C(=O)NCCCN2CCOCC2)c1 | 12.3
14 | CCOCCCN(Cc1ccco1)C(=O)c1cc2c(=O)[nH]c3ccc(C)cc3c2s1 | 6.08
15 | CCCCCCn1c(NCC)nc2c1c(=O)[nH]c(=O)n2C | 3.92
16 | Cc1ccc(CN2CC(C(=O)N3CCN(c4ccccc4Cl)CC3)CC2=O)cc1 (centres unmarked) | 4.56
17 | O=C(COC(=O)Cc1ccc(Br)cc1)NC12CC3CC(CC(C3)C1)C2 | 7.75
18 | COc1ccc(Br)cc1CN1CCN(C(=O)Cc2ccccc2)CC1.Cl | -1.38
19 | Oc1c(/C=N/c2ccccn2)sc2ccccc12 | 9.26
20 | COc1ccc(C(=O)NC(C)C2CC3CCC2C3)c(OC)c1 (centres unmarked) | 7.97
21 | CN(C)S(=O)(=O)c1cc(C(=O)N2CCC(C(=O)O)(c3ccccc3)CC2)ccc1Cl | 16.4
22 | COc1ccc(S(=O)(=O)NCCC(=O)N2CCCC2)cc1N(C)S(C)(=O)=O | 12.2

Row | SMILES | hERG current change (%, negative = inhibition) at 1uM [%]
23 | CCCCCCCC(=O)N/N=C/c1ccco1 | -1.1
24 | COc1ccc(N(C)S(=O)(=O)c2cccc(C(=O)N3CCN(S(=O)(=O)c4ccc(C)cc4)CC3)c2)cc1 | 0.539
25 | CCOC(=O)N1CCN(C(=O)C(=O)N/N=C/c2ccc(OC)cc2OC)CC1 | 7.19
26 | S=c1[nH]nc(-c2ccn[nH]2)n1-c1ccccc1Cl | 10.4
27 | CC(NC(=O)[C@@H](C)NC(=O)[C@@H]1Cc2ccccc2CN1C(=O)OC(C)(C)C)c1ccccc1 (some centres unmarked) | 11.1
28 | O=C(C1CCC(C(=O)N2CCc3ccccc32)CC1)N1CCc2ccccc21 (centres unmarked) | 10.5
29 | O=C(C1CCC(=O)N(C2CC2)C1)N1CCC(Oc2cccc(F)c2)CC1 (centres unmarked) | -3.87
30 | C=CCn1c(Cc2ccc(OC(C)C)c(Cl)c2)nnc1SCC(N)=O | 9.03
31 | CC(=O)NCc1cccc(CNC(C)=O)n1 | 7.49
32 | COc1ccc(N2C(=O)CC(N3CC=C(c4ccccc4)CC3)C2=O)cc1 (centres unmarked) | 5.01
33 | COc1ccc(OC)c(Cc2nnc(CCC(=O)N3CCCCC3c3nccs3)o2)c1 (centres unmarked) | 9.59
34 | COc1cccc(CNC(=O)CCC2CCCN(c3cc(C)nc(N)n3)C2)c1 (centres unmarked) | -18.3
35 | COc1ccc(CCNC(=O)c2cc3c(=O)n4ccccc4nc3n(CCN3CCOCC3)c2=N)cc1 | -82
36 | CC1(O)CC(c2ccc(Cl)cc2)=NN1C(=O)c1ccc(Cl)cc1 (centres unmarked) | 11.3
37 | Cc1ccc2cn[nH]c2c1NC(N)=S | 6.8
38 | CC(=O)Nc1cccc(C(=O)OCC(=O)NCc2cc(C)c(O)c(C)c2)c1 | -20.5
39 | CSc1ccc(CN2CCSCC2)cc1 | 9.85
40 | C=CCN1C(=O)C(O)(CC(=O)c2ccccn2)c2ccccc21 (centres unmarked) | 3.7
41 | COc1ccc(NC(=O)c2ccccc2[N+](=O)[O-])cc1 | 13.2
42 | Cc1cc(NC(=O)CSc2nnc(Cn3c(=O)sc4ccccc43)n2-c2ccccc2C)no1 | 12.3
43 | CN(CC(=O)Nc1c(Cl)cccc1Cl)C(=O)C1CCN(C(=O)Nc2ccccc2)CC1 | 10.9
44 | CC(C)(C)c1ccc2c(c1)OC(C(=O)N/N=C\c1ccccn1)CO2 (centres unmarked) | 6.25

Row | SMILES | hERG current change (%, negative = inhibition) at 1uM [%]
45 | O=C(CCSCCc1ccccn1)Nc1ccc(Cc2ccncc2)cc1 | 8.07
46 | CN(CC(=O)Nc1cccc(S(=O)(=O)NC2=NCCC2)c1)Cc1ccccc1Cl | -1.75
47 | CCOC(=O)COc1cccc2c(=O)n(CC(=O)NCc3ccccc3)ccc12 | 9.66
48 | O=C(c1ccco1)c1cn(Cc2ccc(Cl)cc2)c2ccccc12 | 6.55
49 | COc1ccc(-c2cc(C(=O)N3CCN(c4ccccc4O)CC3)c3ccccc3n2)cc1 | 5.58
50 | O=C(c1ccccc1)c1ccc(COC(=O)c2cnccn2)cc1 | 5.17
51 | Cc1ccccc1C1=NC(C(F)(F)F)(C(F)(F)F)c2c(n(-c3ccc(F)cc3)c(=O)[nH]c2=O)N1 | 11.5
52 | COc1ccc(/C=C/C(=O)OCc2csc(-c3ccccc3)n2)cc1OC | 17.2
53 | Fc1ccc(CNCCc2ccccc2)cc1.O=C(O)C(=O)O | 5.08
54 | CCN(CC)S(=O)(=O)c1ccc(N2CCOCC2)c(NC(=O)c2ccc(N3CCCC3=O)cc2)c1 | 14.1
55 | Cc1[nH]c(=O)c(C#N)c(C)c1CSc1ncccn1 | 5.9
56 | CCOC(=O)C1=C(C)NC(=O)CC1c1cc(OC)c(OC)cc1Br (centres unmarked) | 15.6
57 | CCn1c(=S)sc2c(=O)n(CC(=O)Nc3ccc(OC)c(Cl)c3)c(C)nc21 | 18.4
58 | O=C(Nc1ccc(Br)cc1)N1CCCCCC1 | 8.3
59 | CCC(C)NC(=O)CSc1nc2ccccc2c(=O)n1-c1c(C)n(C)n(-c2ccccc2)c1=O (centres unmarked) | 10.1
60 | CC1CC(C)CN(c2oc(Cc3ccccc3)nc2C#N)C1 (centres unmarked) | 7.63
61 | O=C(CSc1nc2cc(Cl)ccc2s1)Nc1cccc(S(=O)(=O)N2CCOCC2)c1 | 12.2
62 | O=C(Nc1ccccc1)c1ccc(CN2CCC(Cc3ccccc3)CC2)cc1 | 12.7
63 | COc1ccc(NC(=O)CCS(=O)(=O)c2cc3c(cc2C)NC(=O)CO3)cc1 | -12
64 | COc1ccc(-c2nnn(CC(=O)N(CC(=O)NC3CCCC3)Cc3ccco3)n2)cc1OC | 4.9
65 | FC(F)(F)c1ccc(C2[C@H]3CN(Cc4cccnc4)[C@H](c4ccccc4)C34CC2(c2cccnc2)C4)cc1 (some centres unmarked) | 13.7
66 | COCCOc1nc2c(c(=O)n(C)c(=O)n2C)n1CCc1ccccc1 | 4.69

Row | SMILES | hERG current change (%, negative = inhibition) at 1uM [%]
67 | COc1ccc2c(c1OC)C(=O)OC2Nc1nc(-c2ccc([N+](=O)[O-])cc2)cs1 (centres unmarked) | 11.7
68 | Cc1c(NC(=O)Nc2ccccc2[N+](=O)[O-])c(=O)n(-c2ccccc2)n1C | 13.2
69 | O=C(Nc1nnc(-c2ccc(Cl)cc2)o1)C1CCCCC1 | 12.6
70 | CC(=O)Nc1c(Cl)cc([N+](=O)[O-])c2ccccc12 | 7.63
71 | O=C(Nc1cccc(C(=O)O)c1)/C(=C\c1ccco1)NC(=O)c1ccc(Br)o1 | 7.51
72 | O=C(NCc1ccccn1)c1cccc(S(=O)(=O)N2CCCCC2)c1 | -19.9
73 | O=C(c1ccc2c(c1)OCCO2)N(c1ccccn1)C1CCCCC1 | 11.5
74 | CC(=O)Nc1ccc(S(=O)(=O)NC2(C(F)(F)F)N=C(c3ccccc3)NC2=O)cc1 (centres unmarked) | 16.5
75 | CCC(C)(C)NC(=O)CN(Cc1cccs1)C(=O)CNS(=O)(=O)c1ccc(C)cc1 | 1.79
76 | Cl.Cn1c(=N)n(CC(O)c2ccco2)c2ccccc21 (centres unmarked) | 1.97
77 | COc1ccc(NC(=O)C2CCCN2S(=O)(=O)c2ccc(Cl)cc2)cc1 (centres unmarked) | 11.9
78 | CCOC(=O)c1c(C)[nH]c(C)c1S(=O)(=O)N(C)CC(=O)NCc1ccc(C)cc1 | 14.1
79 | Cl.O=S(=O)(c1ccc(OCC(O)CNCc2ccco2)c(Cl)c1)N1CCOCC1 (centres unmarked) | -4.65
80 | O=C(Nc1ccncc1)c1cn(-c2ccccc2)nc1-c1cccs1 | 10.5
81 | Cc1cc(=O)oc2cc(OCC(=O)N3CC[C@@]4(O)CCCC[C@H]4C3)c(Cl)cc12 | -5.58
82 | NC(=O)c1ccccc1OCC(=O)c1ccc(Cl)cc1 | 8.57
83 | N#CC(Cc1cccc(CC(C#N)(c2ccccc2)c2ccccc2)c1)(c1ccccc1)c1ccccc1 | 13.6
84 | O=C(COc1ccc(Cl)cc1)NCCSc1ccccc1 | -2.52
85 | CCN(CC)CCn1c(C)nc2ccccc21.Cl | 6.38
86 | COC(=O)c1sccc1NC(=O)CSc1nnnn1-c1ccccc1F | 13.8
